Measured values taken from PubChem BioAssay AID686978 (National Center for Advancing Translational Sciences (NCATS), 2013).
The whole screen tested about 420,000 compounds, of which about 64,000 (15%) were called active. The inconclusive results got no clear call from the source; some entries with a clear call stand among them for comparison. The call rests on the fitted dose curve; in most records, active means well fitted inhibition curve with a large enough effect; inconclusive means small, poorly fitted or top-dose-only effect; inactive means flat fitted curve, though single readings scatter. No potency is given beside an inconclusive call; the fits are too rough.

Experiment: qHTS for Inhibitors of human tyrosyl-DNA phosphodiesterase 1 (TDP1): qHTS in cells in absence of CPT; further: nearly all actives have a fitted effect of over 55% in size
Settings: DT40 Tdp1-/- hTDP1 cells, no CPT, ATP luminescence, 48 h; activity change, negative = growth inhibition: at 46.2 µM (top of the series) unless noted
In short: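 Compound effects on proliferation are scored in DT40 Tdp1-/-;hTDP1 cells in the absence of CPT. ATP levels (CellTiter-Glo luminescence) are recorded after a ≥48 hr, 37 °C incubation.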
On the % scale 0 is the no-effect control and ±100 the full control effect; potency means the concentration at half of the fitted maximal effect; tags describe the fitted curve by direction and shape.

Structure (SMILES)	Potency	activity change, negative = growth inhibition
CC1CCC/C(=N\NS(=O)(=O)c2ccccc2)C1 (centres undefined)	inactive	–
CCCNC(=O)C1CCN(S(=O)(=O)c2ccc3c(c2)OCCO3)CC1	inactive	–
COc1cc(CCC(=O)Nc2ccc(C)c(S(=O)(=O)N3CCCCCC3)c2)cc(OC)c1OC	active: 7.31 µM	–
Cc1cccc(C(=O)NC(=O)Nc2ccc(-c3cc(C(F)(F)F)nn3-c3ccccc3)cc2)c1	inconclusive [inhibitor, partial curve]	–
COc1ccc(S(=O)(=O)N2CCSC2C)cc1C (centres undefined)	inactive	–
O=C(NCc1ccccc1)c1c[nH]c2ccccc2c1=O	inconclusive [inhibitor, single point]	–
O=C(Nc1cccc2c1CCCC2)c1cc(C2CCCCN2C(=O)CCCc2ccccc2)on1 (centres undefined)	inconclusive [inhibitor, single point]	–
CCN(CC)c1ccc(NC(=O)Cn2nnc(-c3cccc(OC)c3OC)n2)c(C)c1	inconclusive [inhibitor, single point]	–
O=C(NCc1ccncc1)C(=O)N/N=C/c1ccccc1OCc1ccccc1	inactive	–
O=C(c1cc(-c2ccc(Cl)cc2)nc2ccccc12)N1CCOCC1	inconclusive [inhibitor, single point]	–
O=C1C2C3C=CC(C3)C2C(=O)N1c1ncn[nH]1 (centres undefined)	inactive	–
O=C1S/C(=C/c2ccc(N3CCOCC3)o2)C(=O)N1Cc1c(F)cccc1Cl	inactive	–
Cc1cccc(C)c1NC(=O)CN(C)C(=O)c1cccc(S(=O)(=O)N2CCN(C)CC2)c1	inconclusive [inhibitor, single point]	–
O=C(O[C@H]1[C@H](Cc2ccccc2)NS(=O)(=O)[C@H]2CC3C=C[C@]12O3)c1ccc(Br)cc1	inconclusive [inhibitor, single point]	–
COc1ccc(NC(=O)Cn2c(C)cc(=O)c3ccccc32)cc1	active: 11.6 µM	–
CCCOC(=O)/C(=C\C=C\c1ccco1)NC(=O)c1ccccc1	active: 20.6 µM	–
CCc1ccccc1Oc1nc(NC(C)C)nc2ccsc12	inconclusive [inhibitor, single point]	–
O=C(NCc1cccnc1)C(=O)NCC(c1cccnc1)N1CCN(c2ccccc2F)CC1 (centres undefined)	inconclusive [inhibitor, single point]	–
CCn1cc(S(=O)(=O)Nc2cc(C)ccc2F)cn1	inactive	–
Cc1ccc(-c2nnc(NCc3ccccc3)c3ccccc23)cc1	inconclusive [inhibitor, single point]	–
Cc1nc(NN)c2c3c(sc2n1)COC(C)(C)C3	inactive	–
CCOC(=O)c1sc2ccccc2c1S(=O)(=O)N1CCN(c2cccc(C)c2C)CC1	inconclusive [inhibitor, single point]	–
CSc1nc(-c2ccccc2)nn1C(=O)c1ccc(C)cc1	–	inconclusive: -33.3% [inhibitor]

Structure (SMILES)	Potency	activity change, negative = growth inhibition
O=C(C1CCN(S(=O)(=O)c2cccc3nonc23)CC1)N1CCN(c2ccccc2F)CC1	inconclusive [inhibitor, single point]	–
CSc1ccccc1C(=O)C1CCCN(Cc2cnn(-c3ccccc3)c2)C1 (centres undefined)	inconclusive [inhibitor, single point]	–
Cc1cc(C)c2c(=O)cc(C(=O)Nc3ccc(S(=O)(=O)N(C)Cc4ccccc4)cc3)oc2c1	inconclusive [inhibitor, partial curve]	–
COc1cccc(C(=O)C2CCCN(Cc3cccc(-n4nc(C)cc4C)c3)C2)c1 (centres undefined)	inconclusive [inhibitor, single point]	–
Cc1cc(C)c2cc(C(=O)N3CCc4ccccc4C3)[nH]c2c1	inconclusive [inhibitor, single point]	–
CC(=O)c1cccc(NC(=O)c2nc3ccccc3nc2N2CCCCC2)c1	inconclusive [inhibitor, single point]	–
Cc1cc(C2C(C#N)=C(N)OC3=C2C(=O)CC(C)(C)C3)c(C)s1 (centres undefined)	inconclusive [inhibitor, single point]	–
CCOC(=O)C1(Cc2ccccc2C)CCCN(C(=O)c2cc(C3CC3)[nH]n2)C1 (centres undefined)	inconclusive [inhibitor, partial curve]	–
O=C(CCn1nc(-c2ccc(Cl)cc2)c2ccccc2c1=O)Nc1ccc(OC(F)(F)F)cc1	inconclusive [inhibitor, full curve]	–
Cc1ccc2[nH]c(C)c(CC(=O)NCc3ccccc3)c2c1	inconclusive [inhibitor, partial curve, poor fit]	–
Fc1ccc(-c2nc3ccc(Cl)cn3c2Cc2ccccc2C(F)(F)F)cc1	inconclusive [inhibitor, single point]	–
Cc1ccc(-c2nc(CNC(=O)c3cc(C)on3)cs2)cc1	inconclusive [inhibitor, single point]	–
O=C(/C=C/c1ccccc1)CC(=O)c1ccccc1	inconclusive [inhibitor, single point]	–
COc1cccc(CN2CC(C(=O)NCCC3=CCCCC3)CCC2=O)c1 (centres undefined)	inconclusive [inhibitor, single point]	–
COCCN(CCOC)C(=O)C1CCCN(S(=O)(=O)c2ccc(NC(=O)OC)cc2)C1 (centres undefined)	inconclusive [inhibitor, single point]	–
CCc1noc(C)c1C(=O)Nc1cc(S(=O)(=O)N(CC)CC)ccc1N1CCOCC1	inconclusive [inhibitor, single point]	–
Cc1nn(-c2ccccc2)c(Cl)c1C(=O)Nc1ccccc1	inactive	–
Cc1ccc(N2C(=O)CC(Cc3ccc(Cl)cc3)C2=O)cc1 (centres undefined)	inactive	–
Cc1cccc(Nc2c3c(nc4ncnn24)CCC3)c1	inconclusive [inhibitor, single point]	–
C[C@H](CO)N1C[C@H](C)[C@@H](CN(C)Cc2ccccc2)Oc2c(NC(=O)C3CC3)cccc2C1=O	inconclusive [inhibitor, single point]	–
COCCCNS(=O)(=O)c1ccc(SC)cc1	inconclusive [inhibitor, partial curve, poor fit]	–
COc1cccc(-c2nn(-c3ccccc3)cc2C(=O)O)c1	inactive	–
COc1ccccc1OCC(=O)/C=C1/N(C)c2ccccc2C1(C)C	active: 20.6 µM	–

Structure (SMILES)	Potency	activity change, negative = growth inhibition
COc1cccc(CNc2nc(C(F)(F)F)nc3ccccc23)c1	inconclusive [inhibitor, single point]	–
CC(=O)NCCn1ccc2ccccc21	inactive	–
Cc1ccc(Sc2nnc(-c3ccccc3)cc2C#N)cc1	inconclusive [inhibitor, single point]	–
O=C1CC(c2ccc(F)cc2)Cc2nc(N3CCN(c4ccccc4)CC3)ncc21 (centres undefined)	inconclusive [inhibitor, single point]	–
c1ccc2c(-c3cccc4nccn34)cncc2c1	inconclusive [inhibitor, partial curve, poor fit]	–
CCOC(=O)C1=C(C)NC(C)=C(C(=O)OCC)C1c1ccc(O)cc1	inconclusive [inhibitor, single point]	–
O=C(Nc1cc(F)ccc1F)c1cc2nc(-c3ccco3)cc(C(F)(F)Cl)n2n1	inactive	–
C=CCC1c2cccc(C(=O)OC)c2C(=O)N1c1ccccc1 (centres undefined)	inconclusive [inhibitor, partial curve]	–
COC(=O)CCC(=O)OC1(C)C(=O)C2=CN(c3ccc(OC)cc3)C(c3ccc(OC)cc3)=CC2=C(Br)C1=O (centres undefined)	inconclusive [inhibitor, single point]	–
COc1ccc(-n2c3c(cc(C(=O)NNc4ccccc4C)c2=O)C(=O)CC(C)(C)C3)cc1	inconclusive [inhibitor, partial curve, poor fit]	–
COc1ccccc1/C=N/N1CCN(Cc2ccccc2Cl)CC1	inactive	–
Cc1cc(C)c2c(n1)nn1c(C)c(CCC(=O)NCc3ccc(Cl)cc3)c(C)nc21	inconclusive [inhibitor, single point]	–
Cn1c2ccccc2c(=O)c2c(=O)n(-c3ccccc3)c(C3CCCCC3)nc21	inconclusive [inhibitor, partial curve]	–
O=S(=O)(c1ccc(Br)cc1)N1CCN=C1SCc1cccc(F)c1	inconclusive [inhibitor, single point]	–
O=C(Nc1ccc(Cl)cc1Cl)NC1CCN(S(=O)(=O)c2ccc(F)cc2)CC1	inconclusive [inhibitor, single point]	–
CC1CCCC(NC(=O)CSc2ccc(F)cc2)C1C (centres undefined)	inactive	–
Cc1ccccc1C(=O)NCC(=O)O	inactive	–
Cc1ccc(C2=NN(CC(=O)NCCc3ccc(Cl)cc3)C(=O)CC2)cc1	inconclusive [inhibitor, single point]	–
CCOC(=O)C(C)n1cnc2scc(-c3ccc(C)c(C)c3)c2c1=O (centres undefined)	inactive	–
O=C(O)c1ccc(S(=O)(=O)N2CCSCC2)cc1	inactive	–
COc1ccc(C(=O)NC(=S)Nc2ccc(N3CCCC3)cc2)cc1OC	active: 8.2 µM	–
COc1ccc(-c2noc(CNC(=O)CCN3C(=O)[C@H]4CC=CC[C@H]4C3=O)n2)cc1	inconclusive [inhibitor, single point]	–
[N-]=[N+]=NC(c1ccccc1)c1nc2ccccc2[nH]c1=O (centres undefined)	inconclusive [inhibitor, single point]	–
